Measurements published in PubChem BioAssay AID1347120 (National Center for Advancing Translational Sciences (NCATS), 2019).
The whole screen tested about 390,000 compounds, of which about 930 (0.24%) were called active. The shares of active, inactive and inconclusive entries below differ from those in the screen. The call rests on the fitted dose curve; in most records, active means well fitted activation curve with a large enough effect; inconclusive means small, poorly fitted or top-dose-only effect; inactive means no such curve, though single readings can be large or run the other way. A potency beside an inconclusive call is a rough fit, not a confirmed value.
Potency means the concentration at half of the fitted maximal effect; tags describe the fitted curve by direction and shape.

Experiment: qHTS for Suppressors of FUS Proteinopathy: Primary screen using FUS-linked yeast assay; further: nearly all actives have a fitted effect of over 55% in size;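 on growth rescue (activation): plate controls were DMSO vehicle for no effect and reference control for full effect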
Conditions: S. cerevisiae FUS-expressing, OD600, 24 h; Potency: growth rescue; growth rescue (activation): at 76.6 µM (top of the series)
In short: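 Yeast FUS proteinopathy model; galactose-induced FUS (2%), starting OD 0.005. Cpds in dilution series, 24hr, 30C, 99% humidity. Abs 600 nm growth. Pos ctrl CP55940 (top 92uM final); neg ctrl DMSO.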
In the case of `COc1ccc(Cl)cc1C(=O)Nc1ccc2nc(Nc3cccc(Cl)c3)cc(C)c2c1`, the Potency is reported as inconclusive: 7.08 µM [activator, partial curve].
In the case of `CN(CC1CCCO1)S(=O)(=O)c1ccc(C(=O)Nc2nc(-c3ccccn3)cs2)cc1` (centres undefined), the “growth rescue (activation)” value is reported as inactive: 42.4%.
For `CC(=O)NCCn1c(SCc2ccc(C)cc2C)nc2ccccc2c1=O`, the Potency was inconclusive: 25.1 µM [activator, single point].
In the case of `O=C(Nc1ccc2c(c1)OCO2)C1Cc2c(-c3ccc(Cl)cc3)ccnc2O1` (centres undefined), the Potency is reported as inconclusive: 39.8 µM [activator, partial curve, poor fit].
In the case of `CC(C)c1ccc(C2=CC(c3cccc(Cl)c3)n3c(nc4ccccc43)N2)cc1` (centres undefined), the “growth rescue (activation)” value is reported as inactive: -10.7%.
With `CCOC(=O)[C@@]12CN(C(=O)OC(C)(C)C)CC=C1N(Cc1ccc(OC)cc1)C(=O)[C@H]2CC(=O)NCCCCc1ccccc1` the Potency was inconclusive: 17.8 µM [activator, partial curve, poor fit].
For `O=C(NCCC1=CCCCC1)c1ccc(Cl)c(S(=O)(=O)N2CCOCC2)c1`, the “growth rescue (activation)” value was inactive: 20.4%.
For `FC(F)(F)COc1nc(N2CCOCC2)nc(N(c2ccccc2)c2ccccc2)n1`, the Potency was inconclusive: 31.6 µM [activator, partial curve, poor fit].
In the case of `CC(=O)Nc1cc(-c2cccc(F)c2)cn2c(-c3ccc(F)c(Cl)c3)cnc12`, the Potency is reported as inconclusive: 50.1 µM [activator, single point].
In the case of `COc1ccc(-c2ccc(CN3C(C(C)C)C(=O)N(Cc4cn(CC5CCCCC5)nn4)CCS3(=O)=O)cc2)cc1OC` (centres undefined), the Potency is reported as active: 25.1 µM.
In the case of `NC(=S)Cc1nc(-c2ccc(Cl)cc2)cs1`, the “growth rescue (activation)” value is reported as inactive: -0.701%.
For `COc1ccc(-c2nc3cnccn3c2Nc2ccc(C)cc2)cc1`, the Potency was inconclusive: 28.2 µM [activator, partial curve, poor fit].
With `Cc1ccc(NS(=O)(=O)c2ccc3c(c2)CC(=O)N3)cc1Cl` the Potency was inconclusive: 35.5 µM [activator, single point].
With `CCOC(=O)c1ccc(NC(=O)c2cnn(-c3ccc(C)cc3C)c2C2CCN(C(=O)OC(C)(C)C)CC2)cc1` the “growth rescue (activation)” value was inactive: -0.734%.
For `COc1ccc(Cl)cc1NC(=O)CSC1=Nc2ccccc2C2=NC(CCC(=O)NCc3ccc(F)cc3)C(=O)N12` (centres undefined), the Potency was inconclusive: 25.1 µM [activator, single point].
With `COc1ccc(C2=Nc3ccccc3NC(=O)C2N(Cc2ccccc2)C(=O)C2=NNC(=O)CC2)cc1` (centres undefined) the Potency was inconclusive: 17.8 µM [activator, partial curve].
With `CCOc1cc(-c2cc(-c3ccc(N)cc3)nc(N)c2C#N)ccc1O` the “growth rescue (activation)” value was inactive: 28.6%.
For `COc1cccc(NC(=O)c2cc(C(=O)Nc3cccc(OC)c3)n(C)n2)c1`, the “growth rescue (activation)” value was inactive: 9.42%.
With `Cc1cccc(NS(=O)(=O)c2ccc(-c3cnc(C4CC4)o3)cc2)c1` the Potency was inconclusive: 50.1 µM [activator, single point].
For `C[C@H](CO)N1C[C@H](C)[C@H](CN(C)Cc2ccc(Oc3ccccc3)cc2)Oc2ccc(NC(=O)Nc3cccc4ccccc34)cc2CC1=O`, the Potency was inconclusive: 50.1 µM [activator, single point].
For `c1nc(NCC2CCCCO2)c2cc(-c3ccc4c(c3)OCO4)ccc2n1` (centres undefined), the “growth rescue (activation)” value was inactive: 5.69%.
With `C=CCC[C@H](Cc1ccc(F)cc1)C(=O)OC[C@@H](Cc1c[nH]c2ccccc12)NC(=O)[C@@H](CC=C)CC(=O)N(CCO)Cc1ccccc1` the Potency was inconclusive: 10 µM [activator, full curve].
In the case of `COCCCNC(=O)c1ccc(Cn2c(=O)c3ccccc3n(CC(=O)Nc3c(C)cccc3C)c2=O)cc1`, the Potency is reported as inconclusive: 50.1 µM [activator, single point].
In the case of `CCOc1cc(C(=O)Nc2ccc3nc(Nc4cccc(Cl)c4)cc(C)c3c2)cc(OCC)c1OCC`, the Potency is reported as inconclusive: 11.2 µM [activator, partial curve, poor fit].
For `NC(=O)C1CCN(c2nc(-c3ccc4c(c3)CCO4)cs2)CC1`, the Potency was inconclusive: 17.8 µM [activator, partial curve, poor fit].
In the case of `O=C(Nc1ccc(S(=O)(=O)N2CCOCC2)cc1)C1CCN(S(=O)(=O)c2ccccc2)CC1`, the Potency is reported as inconclusive: 44.7 µM [activator, single point].
In the case of `Cc1cc(C)cc(NC(=O)CCc2c(C)nn(-c3ccc(N4CCCCC4)nn3)c2C)c1`, the Potency is reported as inconclusive: 28.2 µM [activator, single point].
For `CCCCOc1ccc(C2/C(=C(\O)c3ccc4c(c3)OCCO4)C(=O)C(=O)N2CCCN2CCOCC2)cc1` (centres undefined), the Potency was inconclusive: 12.6 µM [activator, partial curve, poor fit].
For `COc1cccc(CNC(=O)CCCC(=O)NC(C)CCc2ccccc2)c1` (centres undefined), the Potency was inconclusive: 4.47 µM [activator, full curve].
In the case of `CCOC(=O)c1scc(-c2ccccc2)c1S(=O)(=O)Nc1ccc(N(C)C)cc1`, the “growth rescue (activation)” value is reported as inactive: 38.2%.
In the case of `O=C(N[C@H]1C/C=C\C[C@H](CC(=O)N(CCO)Cc2ccccc2)C(=O)N[C@H](Cc2c[nH]c3ccccc23)COC1=O)OCC1c2ccccc2-c2ccccc21`, the Potency is reported as active: 22.4 µM.
In the case of `CC(=O)NC(CC(=O)NNC(=O)c1cc2ccccc2cc1O)c1ccccc1` (centres undefined), the Potency is reported as inconclusive: 12.6 µM [activator, partial curve, poor fit].
In the case of `O=C(COc1ccccc1)Nc1ccc(-c2ccc(N3CCOCC3)nn2)cc1`, the “growth rescue (activation)” value is reported as inactive: 37.6%.
In the case of `Cc1nc(NC(=O)CSC2=NCCS2)sc1C(=O)N(C)C`, the growth rescue (activation) is reported as inconclusive: -70.6% [activator].
With `CCS(=O)(=O)N1CC(=O)N(c2ccc(Cl)cc2C)C(C)(C(=O)NC2CCCCCC2)C1` (centres undefined) the “growth rescue (activation)” value was inactive: -4.05%.
For `Cc1nc2ccccc2n1CCc1nc2c3ccccc3nc(SCC(=O)Nc3cccc(C(F)(F)F)c3)n2n1`, the Potency was inconclusive: 50.1 µM [activator, single point].
For `COC(=O)CCC(=O)Nc1sc(Cc2ccccc2)c(C)c1C(N)=O`, the “growth rescue (activation)” value was inactive: 2.96%.
In the case of `Cc1ccc2nc(-c3ccc(Cl)c(NC(=O)c4ccc5c(c4)OCCO5)c3)oc2c1`, the “growth rescue (activation)” value is reported as inactive: -25.6%.
In the case of `CCCCOc1ccc(C(=O)Nc2ccc(S(=O)(=O)Nc3nc(C)cc(C)n3)cc2)cc1`, the Potency is reported as inconclusive: 50.1 µM [activator, single point].
